Consider 44 sequences from the supplement of paper PMC11417369.

The other results are listed elsewhere or left out.

This assay concerns PfHDP1 homeodomain (GST-tagged). Description: gcPBM binding intensity (ln(normalized median fluorescence intensity)); higher = stronger DNA binding. Summed up:
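Plasmodium falciparum DNA-binding domains carrying a GST tag were expressed in E. coli and applied for 1 h, at about 25 μg on average, to an Agilent 4 × 180k array. The array held primer-extended double-stranded 36-bp intergenic genomic probes together with negative controls, and binding took place in 1× PBS with 1% milk, 0.2 mg/ml BSA, 0.5% salmon testes DNA and 0.03% Triton X-100. An Alexa488 anti-GST antibody detected bound protein, and the array was scanned at 488 nm. Binding intensity is taken as the highest Masliner-normalised natural-log median intensity across replicate spots of either probe orientation.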
In the case of “ATTATTATATATGTATGTACTTATATAATATATATA [XGTACX_site5198]”, the “gcPBM binding intensity (ln)” value turned out to be 6.36.

As for “ATATGTACAAGTGTTTATGCTGAACGGAAATCCTGT [CACACA_negctrl_site1372]”, the “gcPBM binding intensity (ln)” value was 6.18.

Take “TACCTATATAGACACACACACATATATTTATTTATA [CACACA_site6728]”: the “gcPBM binding intensity (ln)” value worked out at 6.94.

Regarding “AAAAAAAAAAAAATATATATATATATATATATATAT [GTGCAC_negctrl_site212]”, the “gcPBM binding intensity (ln)” value amounted to 9.5.

For the sequence “AAATGTAAATTTATCCGTACATATATATATTTATAT [XGTACX_site7024]”, the “gcPBM binding intensity (ln)” value was found to be 6.36.

Regarding “AAAAAAAAAAATTAAAGTACAAAAATATTAAAAATA [XGTACX_site6517]”, the “gcPBM binding intensity (ln)” value was 6.2.

As to “TCTTTTTAAGGGATTTTTTTTTTTTTTTTAAAAAGA [CACACA_negctrl_site1274]”, the “gcPBM binding intensity (ln)” value is 5.72.

With “TTTGTATCTATATATTGTACGAATTACTTTCATTTA [XGTACX_site4785]”, the “gcPBM binding intensity (ln)” value amounted to 6.46.

Consider “AATACAATTTATAACACACACACAAGAATACCTATA [CACACA_site6705]”, for which the “gcPBM binding intensity (ln)” value came out at 6.94.

For “TTTTTTGTATTTTTCACACACACATAAGTAAACAAT [CACACA_site1900]”, the “gcPBM binding intensity (ln)” value came out at 6.87.

Turning to “TATTATGTATGTATATGTACGTATCTTATTTTATTT [XGTACX_site5008]”, the “gcPBM binding intensity (ln)” value is 6.24.

As for “TATACATACATTAGACGTACACATTTTACCTACACC [XGTACX_site3586]”, the “gcPBM binding intensity (ln)” value is 6.92.

For “AAATTATTATATATATGTACGTATAATGTATTTTGT [XGTACX_site2903]”, the “gcPBM binding intensity (ln)” value turned out to be 6.37.

Consider “TTTTTTTTTTTTTCAAGTACATATATATATATATAA [XGTACX_site2098]”, for which the “gcPBM binding intensity (ln)” value is 6.54.

As for “TTTTTATATGTTAAGTGTACGTTTACATTTTATACT [XGTACX_site3485]”, the “gcPBM binding intensity (ln)” value is 6.33.

With “TATATATATATATATACACACACACCCATATATATA [CACACA_site8812]”, the “gcPBM binding intensity (ln)” value was 9.4.

Consider “ACATAAATAAATTAATGTACATATATATTTGTATAT [XGTACX_site3160]”, for which the “gcPBM binding intensity (ln)” value worked out at 6.32.

Turning to “TGCATTTATATCTTCACACATATATATATATATATA [CACACA_site4516]”, the “gcPBM binding intensity (ln)” value was 9.51.

In the case of “ATATGTATATATACATGTACATATTTTTCCTTTCTT [XGTACX_site149]”, the “gcPBM binding intensity (ln)” value was determined as 6.3.

As for “ATTAAAAATTCAATTGCACACGCACATATTTTAATA [CACACA_site8618]”, the “gcPBM binding intensity (ln)” value was determined as 9.92.

As to “ATGTAATAAAATAATTGTACAATGTAACTAATTTTT [XGTACX_site2871]”, the “gcPBM binding intensity (ln)” value is 6.32.

Take “TTGGGTGCATATATTTGTACACATTATTTCTATTTT [XGTACX_site3688]”: the “gcPBM binding intensity (ln)” value is 10.2.

As for “TGTTGTTACAGATATACACACATATATATATTATAT [CACACA_site5342]”, the “gcPBM binding intensity (ln)” value worked out at 6.89.

Turning to “TAAATTATAACGTGCACACATATTTAAAATGAAATG [CACACA_site2820]”, the “gcPBM binding intensity (ln)” value stood at 10.

As to “ATAAACATGGAAATGTATTAAAAGCAAGTATATAAA [XGTACX_negctrl_site516]”, the “gcPBM binding intensity (ln)” value came out at 6.66.

In the case of “AAAAAAAATTTCTTCACACATAAATAAATAAATAAA [CACACA_site4841]”, the “gcPBM binding intensity (ln)” value was 6.39.

In the case of “TATAAATAAAAACACACACACATATATATATATATA [CACACA_site2319]”, the “gcPBM binding intensity (ln)” value was 9.32.

For “CCATTTTAAATATGCACACAGATGCACTAACCCATT [CACACA_site1883]”, the “gcPBM binding intensity (ln)” value turned out to be 9.9.

For the sequence “ACTACTCCATTAAGTAGTACACAAAAAAAAAAAATA [XGTACX_site7031]”, the “gcPBM binding intensity (ln)” value amounted to 6.31.

With “TTACAAATGTTTTACACACACATAATTGTATCAATT [CACACA_site6147]”, the “gcPBM binding intensity (ln)” value was found to be 6.73.

On to “TAATAAAACATATATACACACATTATAAATACATAT [CACACA_site5014]”, for which the “gcPBM binding intensity (ln)” value was determined as 6.61.

As for “TAAAAAATAAAAAAAGCACACACATATATATATATA [CACACA_site8567]”, the “gcPBM binding intensity (ln)” value was found to be 9.24.

Regarding “AAAATAAGAAATTGAAAAATTGAAAACAAAATTAAA [CACACA_negctrl_site1285]”, the “gcPBM binding intensity (ln)” value came to 6.15.

“GTTTTTTTATTTCATCGTACAAAAAAGAAGGCTTTA [XGTACX_site5291]”: the “gcPBM binding intensity (ln)” value is 6.37.

As to “TAAATATGTATTCATACATGCACATATATATATATA [TGCATGCA_site584]”, the “gcPBM binding intensity (ln)” value was found to be 9.45.

On to “TTATATATTTATTTATGTACATATTTTTTTATTATA [XGTACX_site6115]”, for which the “gcPBM binding intensity (ln)” value amounted to 6.75.

In the case of “TACATGATATATCACACACACATATAAATATATATA [CACACA_site2831]”, the “gcPBM binding intensity (ln)” value worked out at 7.35.

For the sequence “TTCACAAAATATTATTGTACATTAAAATATTTATAT [XGTACX_site2535]”, the “gcPBM binding intensity (ln)” value came out at 6.25.

Consider “TATAAAACGGATGAACAACAAATCATATGGCACAAA [TGCATGCA_negctrl_site608]”, for which the “gcPBM binding intensity (ln)” value turned out to be 7.15.

Regarding “GAAAATTTCTTATTTTGTACACACAATAAATATTCA [XGTACX_site3267]”, the “gcPBM binding intensity (ln)” value worked out at 6.31.

“TTGGGGTATCTTCCTATGCACACTTGTTATGTACTA [CACACA_site831]”: the “gcPBM binding intensity (ln)” value turned out to be 9.24.

For the sequence “ATTATAGACACGCGCACACACAACAAAAAAAAAAAA [CACACA_site9180]”, the “gcPBM binding intensity (ln)” value amounted to 6.96.

On to “ATACTTTTAAATTGATGTACTTTATTTATAAGGTGA [XGTACX_site6746]”, for which the “gcPBM binding intensity (ln)” value worked out at 6.1.

As for “TTGATTACTAGAAATGCACACACTGATAAAATAAGG [CACACA_site4134]”, the “gcPBM binding intensity (ln)” value came out at 9.34.
